Experimental data from PubChem BioAssay AID1508624 (National Center for Advancing Translational Sciences (NCATS), 2021).
Among all 48,000 compounds or so, about 120 (0.25%) were called active. Inconclusive results (about 4%) are left out. The call rests on the fitted dose curve; in most records, active means well fitted activation curve with a large enough effect; inconclusive means small, poorly fitted or top-dose-only effect, or another doubt; inactive means no such curve, though single readings can be large or run the other way. The list shows a part of the results.

assay: Primary qHTS for Identification of Small Molecule Activators of Huntingtin-Antisense Promoter Activity; conditions: HEK293 HTT-AS promoter firefly luciferase reporter, 24 h; series mostly up to 57.5 µM; activity change, positive = activation: at the top concentration; further: nearly all actives have a fitted effect of over 55% in size
Procedure, shortened: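 HEK293 cells carrying firefly luciferase reporters were seeded at 2,500 per well in Opti-MEM and cultured for 24 h. They were then treated with compounds at up to 57.5 uM final for 24 h at 37 degrees C before Dual-Glo luminescence readout.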

Activity change, positive = activation, inactive:
Cc1ccc(C)c(Cn2nc(-c3cc(C)ccc3C)ccc2=O)c1 -31.1%
CCOC(=O)c1c(S(=O)(=O)N2CCCC(C(=O)N3CCN(c4ccccc4)CC3)C2)c(C)n(C)c1C (stereo not drawn) 0%
Cc1ccccc1OC(=O)CSc1nnc(-c2cccs2)o1 -0.554%
COc1cccc(N2CC(NC(=O)c3ccc(S(=O)(=O)N4CCCCC4)cc3)CC2=O)c1 (stereo not drawn) -15.1%
CCOc1ccc(S(=O)(=O)NCC(c2ccco2)S(=O)(=O)c2ccc(F)cc2)cc1 (stereo not drawn) -20.6%
COc1ccc(-c2nc3ccccc3o2)cc1NC(=O)COc1ccc(C(C)(C)C)cc1 21%
CCOC(=O)c1cc2c(=O)n3ccccc3nc2n(CC2CCCO2)c1=NC(=O)c1ccc(C)cc1 (stereo not drawn) 9.85%
O=[N+]([O-])c1ccc(C(c2sc3nc(-c4ccco4)nn3c2O)N2CCN(c3cccc(Cl)c3)CC2)cc1 (stereo not drawn) -10.5%
CCC(=O)Nc1ccc2nc(SCCOc3ccc(C)cc3)sc2c1 -15.5%
CCS(=O)(=O)c1ncc(N(Cc2ccc(F)cc2)Cc2ccco2)c(C(=O)Nc2cc(C)ccc2C)n1 -22.7%
CCOC(=O)C1CCN(C(=O)CN2c3ccc(CC)cc3-c3ccccc3S2(=O)=O)CC1 1.9%
CCCn1c(NCc2ccc(N(CC)CC)cc2)nc2ccccc21 -22.5%
CCCN(CCC)C(=O)Cn1c(=O)n(-c2ccc(OC)cc2)c(=O)c2ccc(C(=O)NCc3ccc(C)cc3)cc21 -23.5%
CN1CCN(c2nc3c(S(=O)(=O)c4ccccc4)nnn3c3ccsc23)CC1 -4.65%
Cc1ccc(-n2c(SCC(=O)Nc3cccc(C)c3)nc3c(oc4ccccc43)c2=O)cc1 -13%
CCOC(=O)C1CCCN(C(=O)c2ccc(-n3ccc4ccccc43)s2)C1 (stereo not drawn) -25%
Cc1cc(OI)c(C(C)C)cc1-c1cc(C(C)C)c(OI)cc1C -3.64%
CC(=O)N1c2c(cc(Br)cc2S(=O)(=O)N2CCN(c3cccc(Cl)c3)CC2)CC1C (stereo not drawn) -22.9%
COc1cccc(N2CCN(C(=O)c3cnn(-c4ccc(C)cc4C)c3C3CCN(C(=O)OC(C)(C)C)CC3)CC2)c1 -16.7%
CC(=O)c1cccc(NS(=O)(=O)c2ccc3c(c2)NC(=O)CC(=O)N3)c1 -5.78%
CCN(Cc1ccccc1)C(=O)c1cc2c(s1)-c1c(C)cccc1OC2 -6.17%
Cc1ccc(Cl)cc1NC(=O)Cn1c(=O)n(Cc2ccc(C(=O)NCc3ccc4c(c3)OCO4)cc2)c(=O)c2ccccc21 -10%
CCN1CCN(c2c(S(=O)(=O)c3ccc(C)c(C)c3)cnc3ccc(F)cc23)CC1 -1.96%
Cc1nn(CC(=O)Nc2ccccc2F)c(=O)c2c(C)n(-c3ccc(Cl)cc3)nc12 -36.7%
O=c1c2cnn(-c3ccc(Cl)cc3)c2ncn1Cc1cccc(C(F)(F)F)c1 -13.4%
COc1ccc(NC(=O)CSc2cc(-c3ccccc3)nc(C)n2)cc1 -24.5%
CCOc1ccc(-c2csc(/C(C#N)=C/c3ccc(Br)cc3)n2)cc1 -12.1%
Cc1oc2c(c(C)cc3oc(=O)c(CC(=O)NCc4ccccc4)c(C)c32)c1C -11.3%
CCOC(=O)c1cc(-c2ccccc2)n(-c2cccc(C(=O)Nc3cccc(C(C)=O)c3)c2)c1C -25.9%
COc1cccc(N2CCN(C(=O)CN3C(=O)COc4ccc(S(=O)(=O)N5CCC(C)CC5)cc43)CC2)c1 -11.7%
COc1ccc(C)cc1-n1nnc(C(=O)Nc2cccc(SC)c2)c1C 19.9%
Cc1c(Cl)cccc1NC(=O)Cn1cc2c(n1)CCCC2 -17.9%
COc1ccc(C(=O)NCC(c2cccnc2)N2CCc3ccccc32)cc1OC (stereo not drawn) -19.3%
Cc1cccc(CNC(=O)c2ccc(NC(=O)N3CCSc4ccccc43)cc2)c1 -14.6%
Cc1cccc(Oc2ccc3c(c2)Oc2ccccc2NC3=O)c1 -25.7%
Cc1ccc(NC(=O)Cn2cc(S(=O)(=O)N3CCC(C)CC3)c3ccccc3c2=O)c(Br)c1 -19.1%
CCCCN(CCCNC(=O)c1c(C)oc2nc[nH]c(=O)c12)Cc1ccccc1 -26.8%
COc1ccc(CNC(=O)c2cnn(-c3ccc(F)cc3)c2-n2cccc2)cc1 -9.69%
CNC(=O)c1c(NC(=O)c2ccc(S(=O)(=O)N3CCCCC3C)cc2)sc2c1CCC2 (stereo not drawn) -14.5%
Cc1ccc(Nc2c(-c3cccnc3)nc3ccc(Br)cn23)cc1 1.71%
COc1ccc(-c2nnc(SCC(=O)N(C)Cc3ccccc3)o2)cc1OC -11%
COc1ccc(CN2C(=O)c3oc4ccccc4c(=O)c3C2c2ccc(O)c(OC)c2)cc1 (stereo not drawn) -5.42%
CCOc1ccc(CNC(=O)c2ccc3c(c2)nc2n3CCC(C)C2)cc1OC (stereo not drawn) -20.8%
CCCCSCCCNC(=O)C1CCC(CNS(=O)(=O)c2c(C)cc(C)cc2C)CC1 (stereo not drawn) -3.18%
COc1cccc(C(=O)NC2CC(=O)N(c3ccc4c(c3)OCCO4)C2)c1OC (stereo not drawn) -6.9%
Cc1csc2nc(CCNS(=O)(=O)c3ccc(F)cc3)cn12 -8.34%
O=C(CSc1nc2c([nH]c3ccccc32)c(=O)n1-c1ccccc1)N1CCCCCC1 -10.9%
CC1CCc2c(sc(NC(=O)COc3ccccc3C(C)(C)C)c2C#N)C1 (stereo not drawn) -2.71%
Cc1ccc(NC(=O)Cn2c(SCc3ccc(F)cc3)nc3cccnc32)cc1F 9.47%
C[C@@H](Oc1cc(-c2cnn(C3CCNCC3)c2)cnc1N)c1c(Cl)ccc(F)c1Cl -24.6%
O=C(NCCCN1CCN(c2ccccc2F)CC1)c1cc2c(s1)-c1ccccc1OC2 -14.5%
O=C(O)c1ccc(NC(=O)c2cc3ccccc3o2)cc1 24.2%
CCc1ccc(-n2nc(C)c3c(C)cc(=O)n(CC(=O)Nc4ccccc4C(=O)OC)c32)cc1 11.7%
CCCCOc1ccc(C(=O)N/C(=C\c2ccc(Br)cc2)C(=O)NC2CCCCC2)cc1 -8.06%
CSCCC(NS(=O)(=O)c1ccc2c(c1)oc(=O)n2C)C(=O)N1CCN(c2ccc(F)cc2)CC1 (stereo not drawn) -0.0654%
Cc1cccc(-n2ccnc2SCC(=O)Nc2ccc3c(c2)OCO3)c1 -16.2%
O=C(Nc1cccc(F)c1)C1CCN(c2nc3ccccc3[nH]2)CC1 -4.79%
Cc1nc2c3ccccc3nc(NNC(=O)CCC(=O)N3CCN(c4cccc(C(F)(F)F)c4)CC3)n2n1 -26.8%
CCc1cccc(NC(=O)CCS(=O)(=O)c2ccc3nc(C)sc3c2)c1 -14.8%
CCC(=O)N1CCc2cc(Br)cc(S(=O)(=O)CCC(=O)NCCc3ccccc3)c21 13.6%
CCc1ccccc1NC(=O)Cn1cc2c(n1)CCC(C)C2 (stereo not drawn) -7.51%
O=c1cc(-c2ccccc2)c2ccc3c(c2o1)CN(Cc1ccccc1)CO3 -20.8%
C/C=C/c1ccc(O)c(OC)c1 -7.64%
CCc1ccc(NS(=O)(=O)c2ccc3[nH]cc(C(=O)N(C)Cc4ccco4)c(=O)c3c2)cc1 -9.94%
CC(C)CN(CCNC(=O)c1cn(C)c2ccc(S(=O)(=O)N3CCCC3)cc2c1=O)CC(C)C 11.7% [at 11.5 µM, percent change from vehicle, -100% = no light]
CCCN(C(=O)CCNC(=O)Cn1cnc2ccccc2c1=O)c1cccc(C)c1 -5.64%
O=C(CCOc1ccccc1)N(Cc1cccnc1)c1nc2ccc(F)cc2s1 -3.04%
CCOC(=O)c1c(NC(=O)c2ccc(OC)c(OC)c2)sc2c1CCCCC2 -2.12% [at 11.5 µM, percent change from vehicle, -100% = no light]
O=C(Nc1ccc2oc(-c3ccc(Cl)cc3)nc2c1)c1ccc2ccccc2c1 16.2%
CCN(CC)c1cc(C)c2cc(NC(=O)c3ccc(F)cc3Cl)ccc2n1 -23.3%
CCN(C(=O)c1cc2c(=O)oc3ccc(C)cc3c2s1)c1ccccc1F -7.11%
Cn1c(=O)oc2cc(S(=O)(=O)N3CCC(C(=O)N4CCN(c5ccc(Cl)cc5)CC4)CC3)ccc21 -29.6%
CCOc1ccccc1NC(c1nnc(-c2ccccc2)o1)c1ccc(F)cc1Cl (stereo not drawn) -22.9%
Cc1cccc(NS(=O)(=O)c2ccc(NC(=O)N3CCCC3)cc2)c1 -18.2%
CCOc1ccc(-c2oc3cc(Cl)ccc3c(=O)c2O)cc1OC 7.67%
CCN(CC)CCCN(c1ccccc1)C1Cc2ccccc2C1 -13.4%
Cc1ccccc1CNC(=O)Nc1ccc2c(c1)N(C)C(=O)c1ccccc1S2 -52.8%
COc1ccc(C2CC(=O)N(Cc3ccccc3)c3c2c(C)nn3-c2nc(C)cc(C)n2)c(OC)c1 (stereo not drawn) -15.9%
Cc1cn2c(=O)c(S(=O)(=O)NCc3ccccc3Cl)c(C)nc2s1 -8.08%
Cc1cc(C)n(CCc2nc3c4ccccc4nc(N4CCN(c5ccc(F)cc5)CC4)n3n2)n1 -12.4%
CCN(C(=O)CSc1nc2ccccc2n1CC(=O)Nc1ccc(F)cc1F)c1ccccc1 -24.4%
COc1ccc(-c2ccc(CCC(=O)O)n2-c2ccc(Cl)cc2C)cc1 8.18%
CCN(C(=O)CSc1nc2n[nH]c(C)c2c(=N)n1-c1cccc(OC)c1)c1cccc(C)c1 -48.4%
CCOC(=O)c1cccc(NC(=O)CCc2c(C)nn(-c3ccc(N4CCOCC4)nn3)c2C)c1 19.1%
CCc1ccc(-n2nc(CO)c(C(=O)NCc3ccccc3OC)n2)cc1 1.37%
COc1ccc(C2Oc3nc(SC)nnc3-c3ccccc3N2C(C)=O)cc1 (stereo not drawn) -13.7%
COCCCn1c(=O)c2sccc2n2c(CCCC(=O)NCc3ccc(F)cc3)nnc12 -2.6%
Cc1ccc2[nH]c3c(=O)n(CC(=O)NCCc4ccc(Cl)cc4)ncc3c2c1 -5.45%
COc1ccc(NC(=O)C2CCN(c3cnccn3)CC2)cc1Cl -20.3%
CCn1cc(S(=O)(=O)c2cccc(C)c2)c(=O)c2cc(F)c(N3CCN(c4ccccc4)CC3)cc21 -2.47%
CCC(C)NC(=O)c1sc2ncccc2c1-n1c(C)ccc1C (stereo not drawn) -19.5%
CCOC(=O)c1ccc2[nH]c(CSc3nnc(-c4cccc(F)c4)n3C)cc(=O)c2c1 -6.98%
Cc1ccc(-n2nc(C(=O)N3CCN(c4cccc(C(F)(F)F)c4)CC3)c3c4ccccc4n(C)c3c2=O)cc1 5.36%
